According to the supplement of paper PMC11417369:
± gives the standard deviation of the averaged measurements. The list shows a part of the results.

Each sequence was assayed on PfAP2-LT AP2 domain (GST-tagged) (assay: gcPBM binding intensity (ln(normalized median fluorescence intensity)); higher = stronger DNA binding).
Summary of the method: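 Plasmodium falciparum DNA-binding domains carrying a GST tag were expressed in E. coli and applied for 1 h, at about 25 μg on average, to an Agilent 4 × 180k array. The array held primer-extended double-stranded 36-bp intergenic genomic probes together with negative controls, and binding took place in 1× PBS with 1% milk, 0.2 mg/ml BSA, 0.5% salmon testes DNA and 0.03% Triton X-100. An Alexa488 anti-GST antibody detected bound protein, and the array was scanned at 488 nm. Binding intensity is taken as the highest Masliner-normalised natural-log median intensity across replicate spots of either probe orientation.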

Row | Sequence | gcPBM binding intensity (ln)
1 | TTACATTTTTGAAATAGATACATACACGTGTATGTA [CACACA_negctrl_site1311] | 8.63 ± 0.4
2 | GACATTAAAATGAAATATACATATATATGTATATAT [TGCATGCA_negctrl_site601] | 8.82 ± 0.3
3 | AATATAAGAATATATACACACATAAATACATACATA [CACACA_site4128] | 9.15 ± 0.37
4 | ATATATATATATATTACACACATGTGCAATTAAAAT [CACACA_site1778] | 9.37 ± 0.33
5 | AATTGAAAAATCAGCACACACACAAATACATACATA [CACACA_site3232] | 9.885 ± 0.064
6 | TGGTAATACACATACACACACACATACACATATATA [CACACA_site7312] | 9.96 ± 0.32
7 | GCTATATATTACAATCGTACAATATATATATATATA [XGTACX_site6730] | 9.07 ± 0.42
8 | AATACTTTTTATTTAGTGCATAAGAAAATATAAATC [GTGCAC_site9875] | 8.48 ± 0.4
9 | TATAAAATATGTATGAGGAATAAAATTAAAAAAAAA [TGCATGCA_negctrl_site178] | 8.49 ± 0.52
10 | AAAAAAAAAAATTCGGTGCAATGTAATTAATGTAAA [GTGCAC_site9588] | 8.73 ± 0.47
11 | TGAATTCATAGCAGTTGTACATTGCATGAAGAAACG [XGTACX_site3312] | 8.9 ± 0.45
12 | TGTTCCGAAGGTTGTACACACATAGAAATATACATA [CACACA_site3874] | 8.98 ± 0.5
13 | TTTTTAAAACCTTACATACACACAAATATATATATA [CACACA_site678] | 8.76 ± 0.31
14 | TCTTGTATACGGCATGCATGTTAGCACATACGGACA [TGCATGCA_site146] | 8.9 ± 0.32
15 | TCTTTTTTTACTTTCTTTTTTTTTTTTTTTTTTTTT [XGTACX_negctrl_site610] | 8.36 ± 0.71
16 | TGTTAATTAAAACATCATTAATATTATTAAAAATAC [XGTACX_negctrl_site509] | 8.3 ± 0.39
17 | AATTGATACCTTACATGTACATAATATATATAAATA [XGTACX_site321] | 8.77 ± 0.4
18 | GAACCATTTTTTGGTATACACACGTAATTATATAAT [CACACA_site8552] | 8.88 ± 0.36
19 | TTTTTACATACAAATTAACACACATATAGAAAAGAG [CACACA_site8570] | 8.86 ± 0.37

Row | Sequence | gcPBM binding intensity (ln)
20 | CCTTTATAAAAAAGTAGTACACAATGAATTTATAAT [XGTACX_site5523] | 8.6 ± 0.49
21 | CAATACTAATTGTATACACACAAAAATATACCATAT [CACACA_site3326] | 9.1 ± 0.47
22 | TATATTTATAGACACACACACAAAAAAAAAAAAAAA [CACACA_site6818] | 9.29 ± 0.5
23 | TAATTTTTTTTATTATGTACTTAATAAATGTTAATT [XGTACX_site365] | 8.59 ± 0.52
24 | AAATTATTTATATGTTGTACTTATCCATTTTTATAA [XGTACX_site7441] | 8.84 ± 0.42
25 | TATACGCATATATAAACACACAAAAAAAAAAAAAAA [CACACA_site2026] | 8.86 ± 0.48
26 | TTAGCTACACGCTAATGTACACAAATACAAAGAAAA [XGTACX_site3993] | 8.69 ± 0.52
27 | TATATTAATTTATATCAACACACAAAATCAATATAC [CACACA_site8518] | 8.84 ± 0.38
28 | AAGAATGTTATATTATGATGCTGTCTTTTTTTAAGA [CACACA_negctrl_site251] | 8.49 ± 0.35
29 | ATAAAATATTATATATATATATATATATATATATAT [CACACA_negctrl_site215] | 9.18 ± 0.28
30 | TTTTTTTTTAATTATGCATGTAAATTATATATTATA [TGCATGCA_site335] | 8.51 ± 0.49
31 | AATAAACATATATGTACACACATATACATATATATA [CACACA_site2848] | 9.12 ± 0.36
32 | TATTTATAATTAAATACACACATATATTATATATTT [CACACA_site616] | 8.82 ± 0.46
33 | AATATTTATTTAATTTCACACAGGTCTTTTTTTTTT [CACACA_site5188] | 8.78 ± 0.51
34 | TTGTTCTTATTTCATTTTTATATGATATTTCATTAT [CACACA_negctrl_site1619] | 8.96 ± 0.49
35 | GAGAAAAGGAAATAACGTACACATATGCATATCCAA [XGTACX_site5858] | 9.13 ± 0.54
36 | TGAAAGAAGCATAAATGTACACACATATTTATATAT [XGTACX_site2645] | 9.01 ± 0.46
37 | TATTTATTGTGACACTTTTATTATTTTATGATAAAA [CACACA_negctrl_site37] | 8.56 ± 0.49
38 | GTGTTCTTGTTATACACACACATATATATATATATA [CACACA_site1032] | 9.83 ± 0.057

Row | Sequence | gcPBM binding intensity (ln)
39 | GTAATATTTTATAGTAGTACATATTTTTATTATTTT [XGTACX_site3333] | 8.68 ± 0.47
40 | GAGAGGTCAGTTCACAGTACCCAGAAACTCTACGAG [XGTACX_site2559] | 8.62 ± 0.51
41 | TACAATCTAAAATACACACGCACACCGAAAAAAAAA [CACACA_site3520] | 9.37 ± 0.35
42 | TATATATATAATTAAGCATGCTAGAAACCTTTGAAA [TGCATGCA_site489] | 8.71 ± 0.42
43 | ATATATATATATATATGTACATATTTTTGTTTGATG [XGTACX_site51] | 9.96 ± 0.15
44 | CAGATATTCATATAAACACACATACAAATTATGTAT [CACACA_site4258] | 8.96 ± 0.38
45 | ATATATATATATATTGCACACACAATTATTATTATT [CACACA_site8721] | 9.49 ± 0.11
46 | TAACATATAAGTGTGTGTACGTACTGCGTATAATAT [XGTACX_site8597] | 9.54 ± 0.26
47 | TGAATATATAAATATGCACACTTCTATTATAAATAA [CACACA_site5796] | 8.72 ± 0.39
48 | GACAAACAATATGAATGTACATAAAAATATAACTAA [XGTACX_site1167] | 9.04 ± 0.49
49 | TGAAGAATATTTTTCACACATATATATATATATATA [CACACA_site6080] | 9.62 ± 0.35
50 | TTTTAACATATAAGTACACACATATAATCAATCATA [CACACA_site2325] | 8.87 ± 0.42
51 | ATATAATATTTATATGTACACACCTTAATCCTTAAA [CACACA_site3555] | 8.77 ± 0.47
52 | ATAAACGTTTTTGAAAGTACATATCATTCATTTGAT [XGTACX_site200] | 8.73 ± 0.28
53 | AAAAAAATTAATATGTCAGCACATATATACATACAT [GTGCAC_negctrl_site110] | 8.88 ± 0.41
54 | TATATATATAAAAAAGCACACATACATACATACATA [CACACA_site8196] | 9.13 ± 0.33
55 | CCTTATAAATACTGCACACATAAAATATATATTATC [CACACA_site2806] | 9.09 ± 0.35
56 | TTTGTTCATATGAAATGTACAAAAAAAAAAAAAAAA [XGTACX_site8849] | 8.42 ± 0.34
